This note sets out measurements from PMC10726135.

This is one part of the list. At the low end of the ranking the order means little. Measured with an extract: partners may take part in the binding.

The test deals with T1, HNF4alpha8 (COS-7 nuclear extract) (UniProt P41235-5).
T1 sequence: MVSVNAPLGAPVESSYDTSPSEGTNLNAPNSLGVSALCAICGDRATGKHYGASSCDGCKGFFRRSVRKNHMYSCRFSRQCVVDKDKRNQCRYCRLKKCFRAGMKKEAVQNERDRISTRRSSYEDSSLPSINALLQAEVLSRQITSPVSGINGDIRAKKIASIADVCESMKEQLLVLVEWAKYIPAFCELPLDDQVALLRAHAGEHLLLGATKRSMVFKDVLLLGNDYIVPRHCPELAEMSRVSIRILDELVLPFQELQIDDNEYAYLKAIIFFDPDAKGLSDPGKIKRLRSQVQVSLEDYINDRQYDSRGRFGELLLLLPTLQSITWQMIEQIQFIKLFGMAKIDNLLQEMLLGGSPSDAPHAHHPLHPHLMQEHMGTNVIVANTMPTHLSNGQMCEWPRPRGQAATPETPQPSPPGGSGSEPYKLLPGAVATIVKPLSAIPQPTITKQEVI
Description: protein-binding microarray. The following applies: COS-7 nuclear extract on double-stranded Agilent 4x180k PBM; binding buffer, salt, pH and temperature not given; high values mean tight binding; double strand, one strand shown; sequences stand for … in …GCCTAGGGAGATTAGAGTATCGGTCGA
Regarding CGAAATGTGGGTGAGGCTGTGATGTTTGCC, the binding signal (log2 normalized intensity) came to 0.899. With TTAATACTTTGGAACTCAGTTAATGTACAG the figure was 1.59; with TGTTTCTTGTCCAGGGACTTTGAACACTTC, 5.32. For the sequence GATGACATCATCTGTTTGTACGCGTCGAAC, the binding signal (log2 normalized intensity) is -0.313.

With CTTTCCGTTAGGCTACAGTGGTAACCACAG, the binding signal (log2 normalized intensity) was -1.38. For TGCAATGCATGCTGCCAAACTGCCCAGCAG, the binding signal (log2 normalized intensity) was -1.36.

Regarding TGTTTGGATTGGGCAATGACCTGGACAGGT, the binding signal (log2 normalized intensity) was determined as 2.14. As for GACAGGAACATCTGATTTCCCCGTCCCAAG, the binding signal (log2 normalized intensity) was determined as 2.88. Take AAGGTCACTAATTGGAAGCTCTTTCCCTCC: the binding signal (log2 normalized intensity) came to 0.732. Consider GGCTGTATGTACACTTGCCCTCTCACCAGA, for which the binding signal (log2 normalized intensity) amounted to 2.25. As for AAAATACAGCTGGGAAAAGGCGCATGCATA, the binding signal (log2 normalized intensity) was -1.32. On to GTTTGCATTTTAACCTTTGGCTGGTAGAGC, for which the binding signal (log2 normalized intensity) was 4.17. With CACAGGCAACAGAGGAGCATGGACTTCTGA, the binding signal (log2 normalized intensity) is 2.36. Regarding CTGTCCCTTCTTGGCAAGTTAATGTGGCCT, the binding signal (log2 normalized intensity) was found to be 2.12.

For GAGACCTCTAGACTCCAGCTAAAGCCTGCT, the binding signal (log2 normalized intensity) is -1.26. On to ACATTAATCAGTCGCGTATCTGACTTTATC, for which the binding signal (log2 normalized intensity) was determined as 0.606. Regarding TCACTGGGAGAGAAAGCTAATTTAATAAAC, the binding signal (log2 normalized intensity) is -1.33. On to TCCTCTTATCTTCAGGTTTGCTAATATCTG, for which the binding signal (log2 normalized intensity) turned out to be 0.818. Turning to GTAAAATGGACATAGTAACAACCTAAATCA, the binding signal (log2 normalized intensity) is -1.27. As to TCCACTAACTTGAGTGTGCACCCTGGTCTC, the binding signal (log2 normalized intensity) was determined as 2.03. On to AGAATAAATATTTGGTGAATAAACAAATAA, for which the binding signal (log2 normalized intensity) is -0.867. In the case of GCCAACCTTGGGTCTACATGGAAGCCCAGA, the binding signal (log2 normalized intensity) is -1.16.

Turning to GCAGACATTTAGGCAAACATAAACTCAGAG, the binding signal (log2 normalized intensity) was -1.19.

Consider CACCAACAGGATTGTGAAACGTTTGAATTC, for which the binding signal (log2 normalized intensity) is -0.491. For the sequence AGCCAGTGAACCTTTGTCCCGTTATGGCAC, the binding signal (log2 normalized intensity) came to 3.48. For the sequence AGCAGAGCACGATGAATAGGGACGTTCTAC, the binding signal (log2 normalized intensity) was -1.31. As for ACAACACTCAGGATACCTAAGCCCCATGCT, the binding signal (log2 normalized intensity) came to 0.357. Consider GCAGTTCCTGATCTTTGACCTGGAGCATGA, for which the binding signal (log2 normalized intensity) came out at 5.34. Next, ACTCTAACTGGCTTTAAGAGGAATGCTTTG: -0.731; AGGGAAGGCTGCCGTCCTCAGTGAATCACA: -1.3. Regarding TCCTGCCAAACCAGTTCAACAAGAATTCCC, the binding signal (log2 normalized intensity) was -1.25. AGTCTCAAAGGTCAGATGACAGAATTGGTC: the binding signal (log2 normalized intensity) is 4.15. With CTTCAGGATGAAGGCTGCTGCCTGAAAGGC the figure was -1.29; with GTTTTGGCCAACAGAGGGGTCAGAGGCCAG, 3.37; with TCAAACAGTCTAAAAACCATAGACATTCCT, -1.35.

CAAACTGCCCAGCAGAAAAGCTGTACCAAT: the binding signal (log2 normalized intensity) was -1.35. As to GGGAGGTTATCTTGGGGCTGATGTCTTTCT, the binding signal (log2 normalized intensity) came out at 1.4.

As to AGGTTTTGAGGGAAGTGAACCAATCTTGAG, the binding signal (log2 normalized intensity) is -0.233. With CAGTTCAGGCCATCACACTCCTACCCATTC the figure was -1.31. TAATCAAAGAGAAAAACATTGCATACTCAG: the binding signal (log2 normalized intensity) is -1.36.

As to ACAGAGATCAGAATCATAAAGCAGGGAGAG, the binding signal (log2 normalized intensity) was -1.25. In the case of GGCAGCTTAAAAATGTTGACGCTATTTTAG, the binding signal (log2 normalized intensity) is -0.968. Turning to CAAGGAGGCCCCAACATTCCAGAGAAGCAC, the binding signal (log2 normalized intensity) is -1.33. ACACAGGCTCAACGGGTTAGACGCACGGCA: the binding signal (log2 normalized intensity) is -1.33. With ACCAAGGCTGCTTAACAAACACAAAAAGCG, the binding signal (log2 normalized intensity) is -1.37. Next, TTGGCAGCCACTGAGGCTCTGTGCCTTGTA: -1.03. As to GGGACAGATGTTTGGTTGAGCAAGCTGACA, the binding signal (log2 normalized intensity) was -1.31. Regarding ATTTTACACCTTTTCTAGCTGAGTTGACCT, the binding signal (log2 normalized intensity) was found to be 5.15. For ACCAAAGGTCTTGTACAAAGGTCCTGTGGG, the binding signal (log2 normalized intensity) amounted to 2.25. With TTCCATATTCTATCAGTAGGTACGTTTGTG the figure was 2.32; with AACCCGGGCGCACAAGATGCCGCCTCCCCG, -1.16; with AGGTGAGCAGGCAGAGGTCAATGTCCACAC, 6.45.

Take TTTTCAGACCTTGCATTCTGAGGAACCAGA: the binding signal (log2 normalized intensity) was -0.979.

In the case of TGAGATAGGTATGATAACCCCCGTCACTGC, the binding signal (log2 normalized intensity) was 3.85.

TCTTTGATTAGGAAAGGGAACTCCCTGACC: the binding signal (log2 normalized intensity) worked out at 0.445. In the case of GGTCTAAACCTACTTAGATCAAGATTTTCA, the binding signal (log2 normalized intensity) is -1.4. With TTGCATCAGCTGGGCTCGGCGCTCCGCTTA the figure was -1.37; with GGCAATATCTCCCAGCTGGAGTCTTCTCTA, -1.21. Turning to ATTTAACCTGTATTAGGAAATTGTCAGTGC, the binding signal (log2 normalized intensity) was 0.524. Turning to GGATTTTGGAGCCAAACAGGTGTGGGTTCA, the binding signal (log2 normalized intensity) stood at 2.27. On to GGCAAGGCCTCGTGAAAGTTAACTTTGTAA, for which the binding signal (log2 normalized intensity) is 0.429. With GTGCGCTGCCCCTCACTGCCCAGCCTCTCC the figure was 3.18.

In the case of CTTAGCCAAAGAGAAGCCTAAGCAGGGCTA, the binding signal (log2 normalized intensity) was -1.33. On to TATTTCAGCTTTGACGCCACCTGAAGGCAG, for which the binding signal (log2 normalized intensity) was -1.41. TGTCATCTAGACCTGGACTTGAAGCCAGAC: the binding signal (log2 normalized intensity) turned out to be 0.544. CCACACGTCCCCTTCATGTTTTCACCAAGA: the binding signal (log2 normalized intensity) was 0.449. As to AGCAATCATATATGCATTTGTCTCAGGTGG, the binding signal (log2 normalized intensity) stood at 1.26. For the sequence ACAACAAAGGAAATGAAGCAACACTTTCTG, the binding signal (log2 normalized intensity) was -1.33. For TCAAATTACAAGGAGATATGCACTTGCCCT, the binding signal (log2 normalized intensity) stood at 2.75. GAGGTCTGGACCCTTGGCACTTTCACGATA: the binding signal (log2 normalized intensity) was 1.79. Take CTCTTTGGCCTGGCATTTGAGACTAGCCAC: the binding signal (log2 normalized intensity) was -1.23. Next, GCTGGGATGATTCCCTTATCTTCTCCCCTG: 1.7.
